Measurements as given in PubChem BioAssay AID1345083 (National Center for Advancing Translational Sciences (NCATS), 2018).
Hit rate of the full screen: of about 94,000 compounds, about 6,200 (6.6%) were called active. This list was built around the results that the source calls inconclusive (neither active nor inactive); the mix of calls is not that of the screen. The call rests on the fitted dose curve; in most records, active means well fitted inhibition curve with a large enough effect; inconclusive means small, poorly fitted or top-dose-only effect; inactive means flat fitted curve, though single readings scatter. A potency beside an inconclusive call is a rough fit, not a confirmed value.

Test: Cytotoxic Profiling in HEK 293 Cell Line of Diverse Libraries Using Quantitative High-Throughput Screening; further: nearly all actives have a fitted effect of over 60% in size
Details: HEK 293 viability, ATP luminescence (CellTiter-Glo), 48-72 h; series mostly up to 115 µM
In short: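 HEK 293 seeded at 250 cells/well receive compound via pintool. After 48 or 72 hr at 37 degree Celsius, 5% CO2 and 95% humidity, CellTiter-Glo is dispensed and luminescence read following 10 min at room temperature.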
Potency means the concentration at half of the fitted maximal effect; tags describe the fitted curve by direction and shape.

Row | SMILES | Potency
1 | Cc1ccc(C(=O)N2CCCC3(COc4ccccc4C(=O)N3)C2)cc1 (centres undefined) | active: 63.1 µM
2 | O=C(NCc1ccc(F)cc1)[C@H]1CN(Cc2ccccc2)C[C@H]1C(=O)O | inactive
3 | CCC[C@H]1CN(C(=O)c2ccccc2Cc2ccc(C)cc2)C[C@@H]1N | inconclusive: 63.1 µM [inhibitor, partial curve, poor fit]
4 | c1ccc(-c2noc(-c3cncnc3N3CCC(N4CCCCC4)CC3)n2)cc1 | inconclusive: 79.4 µM [inhibitor, partial curve, poor fit]
5 | O=C(c1ccc(-c2cncnc2)cc1)N1CCC(N[S+](=O)([O-])c2cccc(C(F)(F)F)c2)CC1 | inconclusive: 79.4 µM [inhibitor, partial curve, poor fit]
6 | COc1ccc(CNC[C@H]2O[C@H](Cc3cc(COc4ccccc4)on3)CC[C@@H]2O)cc1 | inconclusive: 79.4 µM [inhibitor, partial curve, poor fit]
7 | Cc1ccc(CN2CC[C@@H]3CN(S(C)(=O)=O)[C@@H]3C2)c(C)c1 | inactive
8 | CN(C)C[C@@H]1CN(C2CCOCC2)C[C@H]1NC(=O)c1ccccc1C(F)(F)F | inconclusive: 89.1 µM [inhibitor, single point]
9 | Cn1nc(C2CC2)cc1NC(=O)Cc1ccccc1 | inconclusive: 70.8 µM [inhibitor, partial curve, poor fit]
10 | CCN1c2cc(C(=O)Nc3cccc(Br)c3)ccc2C(=O)N2CCCCCC21 (centres undefined) | active: 17.8 µM
11 | COc1ccc(C(=O)N2CCC(n3cc(-c4nc(C(C)C)no4)nn3)C2)cc1F (centres undefined) | inconclusive: 35.5 µM [inhibitor, partial curve]
12 | COc1ccc(-c2cn3cc(C(=O)NCCCc4ccccc4)nc3s2)cc1 | inconclusive: 31.6 µM [inhibitor, full curve, poor fit]
13 | O=C(c1csnn1)N1CCCC(CCc2c(F)cccc2F)C1 (centres undefined) | inconclusive: 79.4 µM [inhibitor, partial curve, poor fit]
14 | O=C1N(C2CCN(C3CCC3)CC2)C(c2ccncc2)C12CCCCC2 (centres undefined) | inactive
15 | COc1ccc(Cn2c(=O)c3ccnn3c3ccc(C(=O)NCc4cccnc4)cc32)cc1 | inconclusive: 3.55 µM [inhibitor, full curve, poor fit]
16 | Cc1noc2c(NCCN(C)C)cc(-c3cccc(C(F)(F)F)c3)nc12 | active: 31.6 µM
17 | O=C(NC1CCN(c2ccc3nnc(C4CC4)n3n2)C1)c1cccc(Cl)c1 (centres undefined) | inactive
18 | COc1ccc(CNC(=O)C[C@@H]2[C@H](O)CCC3[C@](C)(CO)[C@H](OC(=O)NC4CCCCC4)CC[C@]32C)cc1 (some centres undefined) | inconclusive: 56.2 µM [inhibitor, partial curve, poor fit]
19 | COC(=O)CNC(=O)[C@@H]1CCCN1C(=O)c1cccc(-c2ccccc2OC)c1 | inconclusive: 89.1 µM [inhibitor, single point]
20 | CCCCCC(=O)N1CCC(=O)N(CC)C[C@H]2COc3ccccc3[C@H]21 | inconclusive: 89.1 µM [inhibitor, partial curve, poor fit]
21 | C[C@@H](O)[C@H](N)C(=O)NCc1nc(-c2cccc(F)c2)c(-c2ccccn2)[nH]1 | inconclusive: 20 µM [inhibitor, partial curve, poor fit]
22 | Cc1ccc(NC(=O)N2CCC(CCNC(=O)CCCc3ccccc3)CC2)cc1F | inactive

Row | SMILES | Potency
23 | Cc1ccc(C2Cn3cnc(C(=O)N4CCC(C(=O)NCCc5ccccc5)CC4)c3CO2)cc1 (centres undefined) | inactive
24 | COC(=O)C1=C(C)N=C2SC=C(CC(=O)Nc3ccc(C)c(C)c3)N2C1c1ccccc1 (centres undefined) | inconclusive: 35.5 µM [inhibitor, partial curve, poor fit]
25 | O=C(NC1CCN(c2cc(-c3ccccc3)[nH]n2)C1)c1cccs1 (centres undefined) | inconclusive: 39.8 µM [inhibitor, full curve, poor fit]
26 | COc1ccc(CNC(=O)C[C@@H]2CCNC[C@@H]2Cc2cc(-c3ccc(F)cc3)on2)cc1 | active: 79.4 µM
27 | COc1cccc(-c2c(C(=O)NCc3ccc(F)c(F)c3)nc3sccn23)c1 | inconclusive: 56.2 µM [inhibitor, partial curve, poor fit]
28 | Cc1ccc(-c2nc(C3CC(=O)N(c4ccc(F)c(Cl)c4)C3)no2)cc1 (centres undefined) | inconclusive: 70.8 µM [inhibitor, partial curve, poor fit]
29 | O=C(Nc1ccc([C@@H](O)[C@H]2COCC(=O)N2Cc2ccccn2)cc1)c1ccc(F)c(Cl)c1 | inconclusive: 50.1 µM [inhibitor, partial curve, poor fit]
30 | COc1ccc(-c2cc(N3CCCN(C(=O)Cc4ccc(OC)c(Cl)c4)CC3)n[nH]2)cc1 | inconclusive: 70.8 µM [inhibitor, partial curve, poor fit]
31 | CC(C)C[C@@H]1N[C@H](C(=O)NCc2ccco2)Cc2c[nH]c3cccc1c23 | active: 35.5 µM
32 | Cc1cc(-c2nn(-c3ccccc3F)cc2CN(C)C2CCOC2)c(C)s1 (centres undefined) | inconclusive: 89.1 µM [inhibitor, single point]
33 | Cn1c(=O)oc2cc(S(=O)(=O)N3CCc4c(nc[nH]c4=O)C3)ccc21 | inactive
34 | O=C(NC1CCN(c2ccc3nnc(C4CC4)n3n2)C1)c1ccccn1 (centres undefined) | inconclusive: 89.1 µM [inhibitor, single point]
35 | O=C(COc1ccccc1)N1CCOCC12CCN(Cc1ccccc1)CC2 | active: 44.7 µM
36 | COc1ccccc1NC(=O)Cn1c(N2CCN(c3ccccc3)CC2)nc(C)cc1=O | inconclusive: 10 µM [inhibitor, full curve, poor fit]
37 | Cc1ccc([S+](=O)([O-])N2CCN(Cc3ccccc3-c3ccc(C)c(Cl)c3)CC2)cc1 | inconclusive: 20 µM [inhibitor, full curve, poor fit]
38 | CN1CC(=O)N(C2CCCNC2)Cc2c(NCC3CCCCCC3)ncnc21 (centres undefined) | inconclusive: 35.5 µM [inhibitor, partial curve, poor fit]
39 | COc1ccc(CN2C(=O)[C@@H]3C[C@@H](CN3C3CCN(C)CC3)Oc3ccccc32)cc1 | inactive
40 | CCCc1noc(-c2ccn3c(CNC(=O)c4ccccc4Cl)nnc3c2)n1 | inconclusive: 56.2 µM [inhibitor, partial curve, poor fit]
41 | COc1ccccc1CC(=O)N1CCc2c(nc[nH]c2=O)C1 | inactive
42 | Cc1ccc(NC(=O)N2Cc3[nH]cnc3C[C@H]2c2nc(-c3cccc([N+](=O)[O-])c3)no2)cc1 | inconclusive: 79.4 µM [inhibitor, partial curve, poor fit]
43 | CCC(CC)C(=O)N1CCC2(CC1)CC(N(Cc1ccc(F)cc1)C1CC1)CCO2 (centres undefined) | active: 39.8 µM
44 | Fc1ccc(C2Cn3nnc(-c4nc(-c5ccccc5)no4)c3CO2)cc1 (centres undefined) | inactive

Row | SMILES | Potency
45 | CC(C)NC(=O)N1C2CCC1CN(c1ccc(C(F)(F)F)cc1)C2 | inconclusive: 22.4 µM [inhibitor, full curve, poor fit]
46 | COc1ccc(-c2cc(N3CCCC(NC(=O)c4ccc(C)cc4)C3)n[nH]2)cc1 (centres undefined) | inconclusive: 31.6 µM [inhibitor, partial curve, poor fit]
47 | O=C(NC1CCC1)C1=NO[C@@H]2CN(CCc3ccccc3)C[C@H]12 | inconclusive: 126 µM [inhibitor, single point]
48 | C#CCNC(=O)c1cc(-c2cccc(C(F)(F)F)c2)c2cccn2n1 | inconclusive: 39.8 µM [inhibitor, partial curve, poor fit]
49 | O=C(c1ccc(-c2ncc3cnc(-c4cccc(F)c4)cn23)cc1)N1CCc2cccnc21 | active: 10 µM
50 | Cc1ccc(NC(=O)C2(CCO)CCN(c3ncccn3)C2)cc1 (centres undefined) | inactive
51 | COc1ccc(C(=O)N2CCC(c3n[nH]c(=O)n3-c3ccccc3)CC2)cc1 | inactive
52 | Cc1cnc(C2CCC2)n1CC1CCN(C(=O)NC2CCCCC2)CC1 | inconclusive: 89.1 µM [inhibitor, single point]
53 | Cc1nn(C)cc1C(=O)N[C@@H]1CN(C2CCOCC2)C[C@H]1CN(C)C | inactive
54 | O=C1NC2(CCCN(CC3CCCC3)C2)Oc2ccccc21 (centres undefined) | inconclusive: 63.1 µM [inhibitor, full curve, poor fit]
55 | COCCn1c(=O)c2c(n1Cc1ccccc1)CN(C(=O)c1cc3ccccc3n1C)CC2 | inactive
56 | O=C(c1ccc2c(c1)OCO2)N1CCCC(n2cc(-c3nc(C4CC4)no3)nn2)C1 (centres undefined) | inconclusive: 100 µM [inhibitor, single point]
57 | COCCC1(NC(=O)c2ccoc2)CCN(CC2CC2)CC1 | inactive
58 | Cc1cc2nc3n(c(=O)c2n1CC(=O)Nc1ccc(F)c(F)c1)CCCC3 | inconclusive: 22.4 µM [inhibitor, full curve]
59 | CN1Cc2cccn2CC1CNC(=O)c1nccn1C (centres undefined) | inconclusive: 89.1 µM [inhibitor, single point]
60 | O=C(c1ccncc1)N1CCC2(CC1)CC(N(C(=O)c1ccccc1)C1CC1)CCO2 (centres undefined) | inactive
61 | CN(C)c1ccc(CN2CCn3c(nnc3-c3ccc(Cl)cc3)C2)cc1 | inconclusive: 50.1 µM [inhibitor, partial curve, poor fit]
62 | CC(NC(=O)Cc1ccc(N(Cc2cccc(F)c2)C(=O)c2ccco2)cc1)c1ccccc1 (centres undefined) | inconclusive: 50.1 µM [inhibitor, partial curve, poor fit]
63 | Cc1noc(C)c1S(=O)(=O)N1C[C@@H](Oc2ccccc2)C[C@H]1C(=O)N1CCCC1 | inactive
64 | CCC1Oc2ccc(NC(=O)C(CC)c3ccccc3)cc2CN(Cc2ccccc2)C1=O (centres undefined) | inconclusive: 39.8 µM [inhibitor, full curve, poor fit]
